SMILES strings stand for the structures. The whole screen tested about 310,000 compounds, of which about 14,000 (4.5%) showed an effect of 50% or more. Effects have a minus sign here. Some of the results follow. Where a SMILES comes first, the peptide text is derived from it. [ ]: non-standard residue; d: D form. NMeY = CN[C@@H](Cc1ccc(O)cc1)C(=O)O; NMeF = CN[C@@H](Cc1ccccc1)C(=O)O; 2Abz = Nc1ccccc1C(=O)O
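Further: peak tail current of the secondary pulse compared with the same well before compound.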

The test deals with human ether-à-go-go-related gene (hERG) potassium channel (human, UniProt Q12809). Briefly: primary screen, population patch clamp on CHO cells stably expressing hERG.
Chain of human ether-à-go-go-related gene (hERG) potassium channel (Q12809 whole entry, looked up): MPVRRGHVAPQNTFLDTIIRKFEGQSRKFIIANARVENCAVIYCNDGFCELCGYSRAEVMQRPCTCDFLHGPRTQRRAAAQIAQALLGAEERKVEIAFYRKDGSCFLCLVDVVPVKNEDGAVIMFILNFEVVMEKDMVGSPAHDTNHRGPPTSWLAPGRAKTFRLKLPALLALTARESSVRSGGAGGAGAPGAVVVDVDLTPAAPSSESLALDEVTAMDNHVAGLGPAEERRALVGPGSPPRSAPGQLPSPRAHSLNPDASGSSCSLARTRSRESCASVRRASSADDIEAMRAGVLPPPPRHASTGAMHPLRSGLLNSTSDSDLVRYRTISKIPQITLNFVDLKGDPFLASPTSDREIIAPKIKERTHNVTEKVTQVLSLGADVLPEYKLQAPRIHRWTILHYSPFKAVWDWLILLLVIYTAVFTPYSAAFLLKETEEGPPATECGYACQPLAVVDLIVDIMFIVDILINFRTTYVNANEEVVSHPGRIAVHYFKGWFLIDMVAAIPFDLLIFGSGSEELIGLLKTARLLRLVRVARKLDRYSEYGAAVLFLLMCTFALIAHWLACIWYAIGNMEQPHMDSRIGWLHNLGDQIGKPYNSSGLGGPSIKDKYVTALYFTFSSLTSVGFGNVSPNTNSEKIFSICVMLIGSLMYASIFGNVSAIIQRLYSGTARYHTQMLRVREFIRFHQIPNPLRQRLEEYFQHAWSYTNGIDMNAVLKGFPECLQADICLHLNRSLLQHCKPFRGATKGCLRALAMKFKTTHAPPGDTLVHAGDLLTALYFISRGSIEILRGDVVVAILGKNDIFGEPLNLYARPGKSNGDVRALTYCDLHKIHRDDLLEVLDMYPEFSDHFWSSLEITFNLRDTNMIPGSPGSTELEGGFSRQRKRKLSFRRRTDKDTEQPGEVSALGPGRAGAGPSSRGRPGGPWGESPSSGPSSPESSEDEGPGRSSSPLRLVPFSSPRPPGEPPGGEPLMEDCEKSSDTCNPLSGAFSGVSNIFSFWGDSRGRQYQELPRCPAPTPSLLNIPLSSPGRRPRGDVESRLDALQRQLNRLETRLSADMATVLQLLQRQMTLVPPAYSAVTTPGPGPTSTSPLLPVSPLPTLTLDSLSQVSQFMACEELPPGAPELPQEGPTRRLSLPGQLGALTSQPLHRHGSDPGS
Take `Cc1cccc(OCc2nnc(N)s2)c1`: the “hERG current change (%, negative = inhibition) at 10uM” value is -8.23%.

Turning to `CC1CCN(c2c(NCC3CCC(C(=O)NCCc4ccc(Cl)cc4)CC3)c(=O)c2=O)CC1` (centres unmarked), the “hERG current change (%, negative = inhibition) at 10uM” value is recorded as -3.81%. To `O=c1cc(CN2CCN(c3ccccc3O)CC2)nc2sccn12` belongs 9.48%. To `CC(NC(=O)c1cccs1)c1ccccc1` (centres unmarked) belongs 9.66%. As for `COc1cccc(CNC(=O)CS(=O)(=O)Cc2nc(-c3ccc(C)cc3)oc2C)c1OC`, the “hERG current change (%, negative = inhibition) at 10uM” value is on record as -4.74%. For the compound `CC1CCC(NC(=O)C(=O)Nc2ccc3c(c2)OCO3)CC1` (centres unmarked), the “hERG current change (%, negative = inhibition) at 10uM” value is 26.9%. To `CCOC(=O)[C@H]1[C@H]2COc3ccccc3[C@@H]2N2C(=O)c3ccc(Cl)cc3NC(=O)[C@@]12C` belongs -12.3%.

Take `Cc1ccc(C(=O)NNC(=O)C2CCN(c3nc(C)cc(C)n3)CC2)cc1`: the “hERG current change (%, negative = inhibition) at 10uM” value turned out to be 4.83%. To `Cc1ccccc1OCC(=O)Nc1cc(S(=O)(=O)N2CCCCC2)ccc1N1CCN(C)CC1` belongs -28.3%. `CC(C)C[C@@H]1NC(=O)[C@H](Cc2ccccc2)N(C)C(=O)[C@H](C)NC(=O)c2ccccc2NC(=O)[C@H](Cc2ccc(O)cc2)N(C)C1=O` (cyclo([2Abz]A[NMeF]L[NMeY])): the “hERG current change (%, negative = inhibition) at 10uM” value is recorded as -6.02%. To `Cc1ccc(S(=O)(=O)N2CCCOC2CNC(=O)C(=O)NCc2ccc3c(c2)OCO3)cc1` (centres unmarked) belongs -13.4%; to `Cc1ccc(N2C(=O)/C(=C/c3ccc(CN(CCC#N)S(C)(=O)=O)o3)C(=O)NC2=S)cc1C`, 19.9%; to `COc1ccc(C(=O)NC2(C(F)(F)F)N=C3SCCN3C2=O)cc1` (centres unmarked), -5.25%. Under `Cc1cccc(C)c1NC(=O)CN(C)CC(=O)Nc1ccc(C#N)c(Cl)c1` stands -30.1%; under `CC1CCCN(c2ccc(C(=O)OCn3nnc4ccccc4c3=O)cc2[N+](=O)[O-])C1` (centres unmarked), 7.12%; under `Cc1ccc(NC(=O)CCn2nnc3ccccc32)c(C)c1`, 9.21%. Under `CCc1cc(C(=O)Nc2ccc(S(=O)(=O)NC3=NCCCCC3)cc2)sc1C` stands -25.4%; under `CC1CCN(c2nc3c(c(=O)n(C)c(=O)n3C)n2Cc2ccccc2)CC1`, -50%; under `Nc1nc(SCc2ccc([N+](=O)[O-])cc2)c2ncn(C3OC(CO)C(O)C3O)c2n1` (centres unmarked), 7.33%.

As for `CCOC(=O)c1ccc(NS(=O)(=O)CC)cc1`, the “hERG current change (%, negative = inhibition) at 10uM” value came out at 16.2%. Under `Cc1ccc(CCNC(=O)C2CC(c3ccccc3[N+](=O)[O-])=NO2)cc1` (centres unmarked) stands -20.7%; under `Cl.O=c1c(-c2ccccc2)coc2c(CN3CCCCC3)c(O)ccc12`, 14.6%.

As to `O=C(COc1ccccc1Br)Nc1ccc(S(=O)(=O)N2CCCC2)cc1`, the “hERG current change (%, negative = inhibition) at 10uM” value is on record as 5.33%. To `CCOC(=O)CNC(=O)CSc1nc(Cc2ccccc2)nc2ccccc12` belongs -17.6%. Under `O=C(O)C1CC=CCC1C(=O)Nc1cccc(F)c1` (centres unmarked) stands 6.32%; under `CCOc1ccc(S(=O)(=O)NC2CC2)cc1`, 4.15%; under `CCCCn1c(-c2csc3ccccc23)n[nH]c1=S`, 12.8%. To `O=C(NCC1CCCO1)c1ccc2c(c1)OCO2` (centres unmarked) belongs 4.88%; to `CCCCS(=O)(=O)N1CCCC(C(=O)Oc2ccccc2)C1` (centres unmarked), 8.98%. Turning to `Cc1ccc(C(=O)N/N=C\c2cc3c(cc2Br)OCO3)cn1`, the “hERG current change (%, negative = inhibition) at 10uM” value turned out to be 25.7%.

In the case of `Cn1c(=O)c2c(ncn2CC(=O)N/N=C/c2ccc(Br)s2)n(C)c1=O`, the “hERG current change (%, negative = inhibition) at 10uM” value is on record as -20.4%.

For the compound `O=C(N/N=C/c1sc(=O)[nH]c1-[n+]1ccc2ccccc2c1)c1ccccc1[O-]`, the “hERG current change (%, negative = inhibition) at 10uM” value was determined as 14.4%.

For `COc1ccc(CCn2c(C)cc(C(=O)CCl)c2C)cc1OC`, the “hERG current change (%, negative = inhibition) at 10uM” value is given as 2.63%. Under `CCCCCCC(=O)N/N=C/c1c(O)n(CCCC)c(=S)[nH]c1=O` stands 9.92%. For `Cc1cc(N2CCCCC2)n2ncc(-c3ccc(Cl)cc3)c2n1`, the “hERG current change (%, negative = inhibition) at 10uM” value is 10.9%.

On to `Cc1ccccc1OCC(=O)Nc1cccc(N(C)S(C)(=O)=O)c1`, for which the “hERG current change (%, negative = inhibition) at 10uM” value is given as -0.768%. To `CC(=O)Nc1ccc(NC(=O)Cc2ccc(-c3ccccc3)cc2)cc1` belongs 15.7%; to `CC(=O)CSc1ccc(-c2nc3cc(C)c(C)cc3[nH]2)cn1`, 22.2%. To `O=C(CNc1cccc(S(=O)(=O)N2CCCC2)c1)Nc1ccc(F)cc1F` belongs -4.58%; to `CCOC(=O)c1cc(-c2ccccc2)nn1CC1CC(c2cccc([N+](=O)[O-])c2)=NO1` (centres unmarked), -24.2%. Under `O=C(COc1ccc(Br)cc1)NCc1cn2ccccc2n1` stands -42.7%; under `CCOC(=O)Cc1csc(NC(=S)NC(=O)c2ccccc2Br)n1`, -6.16%; under `COCCn1c(C)cc(C(=O)COC(=O)c2ccc3ncsc3c2)c1C`, -10.1%. Regarding `CN(C)CCNc1nc2sc3c(c2c(=O)n1CCc1ccccc1)CCCCC3`, the “hERG current change (%, negative = inhibition) at 10uM” value was -24.2%. As to `O=C(c1csc2c1CCCC2)N1CCN(c2ccc(F)cc2)CC1`, the “hERG current change (%, negative = inhibition) at 10uM” value is on record as -33.6%.

On to `Cc1ccc(S(=O)(=O)NCCC(=O)Nc2ccc(C)cc2C(=O)c2ccccc2)cc1`, for which the “hERG current change (%, negative = inhibition) at 10uM” value is -38.1%. Consider `O=C(Nc1nc(-c2ccccn2)cs1)c1ccc(F)c(S(=O)(=O)N2CCOCC2)c1`, for which the “hERG current change (%, negative = inhibition) at 10uM” value is -25.3%.

For the compound `O=C(Nc1ccc(NC(=O)c2ccccc2F)cc1)c1ccccc1F`, the “hERG current change (%, negative = inhibition) at 10uM” value amounted to 7.72%. For the compound `CC(=O)c1c(C)oc2ccc(N(C(C)=O)S(=O)(=O)c3ccc(Br)cc3)cc12`, the “hERG current change (%, negative = inhibition) at 10uM” value is given as -2.27%. To `CCOC(=O)C1C(=O)CC(C)(O)C(C(=O)OCC)C1c1ccc2c(c1)OCO2` (centres unmarked) belongs -3.89%; to `S=C(Nc1ccc(Br)cc1)NC1CCCCC1`, 13.3%.

For the compound `Cc1cc(=O)n2c3ccccc3n(CC(O)CN3CCCCC3)c2c1C#N` (centres unmarked), the “hERG current change (%, negative = inhibition) at 10uM” value is -53.2%. Under `NNc1ccc2c(C(F)(F)F)cc(C(F)(F)F)nc2n1` stands 5.69%.

`CCOC(=O)c1cnn(-c2cc(C)cc(C)c2)c1N`: the “hERG current change (%, negative = inhibition) at 10uM” value turned out to be 20.4%. Under `Cc1ccccc1OCCNC(=O)c1ccco1` stands 24.5%; under `CCc1ccc2oc(C(=O)NCC(c3ccc(OC)cc3)N3CCCCC3)c(C)c2c1` (centres unmarked), -3.57%. In the case of `COCCn1nnnc1C(c1ccccn1)N1CCN(c2cc(Cl)ccc2C)CC1` (centres unmarked), the “hERG current change (%, negative = inhibition) at 10uM” value is reported as -36.7%. To `Cc1cc(C)cc(N2C(=O)C3CC=CCC3C2=O)c1` (centres unmarked) belongs 5.66%.

For the compound `O=C(O)C1CCCC[C@H]1C(=O)Nc1ncc([N+](=O)[O-])s1` (some centres unmarked), the “hERG current change (%, negative = inhibition) at 10uM” value is reported as 7.72%. Under `Cc1cccnc1Nc1nc(-c2ccc(O)cc2)cs1` stands 1.89%. To `O=c1oc2ccc(Br)cc2cc1-c1nc2ccccc2o1` belongs 8.26%. Under `COc1ccc(CC(=O)N(c2ccccc2)c2nc(C)cs2)cc1` stands -43.3%. Consider `COc1cccc(CC(=O)N2CCC(CCC(=O)Nc3cccc(OC)c3)CC2)c1`, for which the “hERG current change (%, negative = inhibition) at 10uM” value is recorded as -17.8%.

Turning to `Cc1c(NC(=O)COC(=O)c2cc(-c3ccc(-c4ccccc4)cc3)nc3ccccc23)c(=O)n(-c2ccccc2)n1C`, the “hERG current change (%, negative = inhibition) at 10uM” value was determined as 28.4%. To `CC1=C[C@H]2OC(=O)[C@@H](C)[C@H]2C[C@@H]2[C@H]1C[C@@H](O)[C@@]2(C)O` belongs 6.22%. Under `CCN(CC(=O)NCc1ccc(F)cc1)C(=O)c1ccc(C)o1` stands 6.13%. Under `CN1c2ccccc2Oc2nnc(N3CCN(Cc4ccccc4)CC3)cc21` stands -78%. On to `CN(C)C(=O)NC(O)C(Cl)Cl` (centres unmarked), for which the “hERG current change (%, negative = inhibition) at 10uM” value is on record as -2%. For `CC(NC(=O)c1ccco1)C(=O)N(C)Cc1ccc(C(F)(F)F)cc1` (centres unmarked), the “hERG current change (%, negative = inhibition) at 10uM” value amounted to 0.665%. To `CC(C)CC(=O)Nc1cccc(-c2nc3ncccc3o2)c1` belongs -18.6%; to `CCOC(=O)c1nnn(CC(=O)Nc2ccccc2OC)c1C(=O)OCC`, 6.59%. Turning to `CC(=O)N1CCN(c2ccc([N+](=O)[O-])cc2C#N)CC1`, the “hERG current change (%, negative = inhibition) at 10uM” value is -88%. Under `CCC(C)C(NC(=O)OCc1ccccc1)C(=O)NCC(c1ccccc1)N(C)C` (centres unmarked) stands -7.1%. In the case of `COc1ccc(-c2nc(SCC(=O)NCc3ccco3)c(-c3ccccc3)[nH]2)cc1OC`, the “hERG current change (%, negative = inhibition) at 10uM” value worked out at 4.94%. Under `COC(=O)c1cc2sccc2n1Cc1ccc(C)cc1` stands 8.64%. In the case of `CCN(C(=O)COC(=O)c1ccc(C)c(S(=O)(=O)N2CCCCC2)c1)C1CCS(=O)(=O)C1` (centres unmarked), the “hERG current change (%, negative = inhibition) at 10uM” value was -66.5%. Under `Cc1ccc(C)c2c1cc(C)c1nnc(SCC(=O)Nc3cccc(C(=O)O)c3)n12` stands 23.4%; under `Cc1cc(C)nc(NS(=O)(=O)c2ccc(N3C(=O)C4CCCCC4C3=O)cc2)n1` (centres unmarked), 21.6%. Take `CCCCCCSc1nsc(N)n1`: the “hERG current change (%, negative = inhibition) at 10uM” value is -10.8%.

As for `CC1CC(C)CN(C(=O)CCCNC(=O)c2ccc(Cl)cc2)C1` (centres unmarked), the “hERG current change (%, negative = inhibition) at 10uM” value is recorded as -23.6%. Under `CCCn1c(SCC(=O)N2CCN(S(=O)(=O)c3ccc(Cl)cc3)CC2)n[nH]c1=O` stands -11%; under `Cc1ccc(NC(=S)N2CCC(NC(=O)c3ccccc3)CC2)cc1`, -14.5%; under `CCN(CC)CCn1c(NS(=O)(=O)c2ccc(Cl)cc2)nc2ccccc21.Cl`, -69.8%.

Regarding `O=c1c2ccccc2nc(-c2ccoc2)n1-c1ccccc1`, the “hERG current change (%, negative = inhibition) at 10uM” value was -8.85%. For `CCn1cc(/C=N/NS(=O)(=O)c2ccc(C)cc2)c(C)n1`, the “hERG current change (%, negative = inhibition) at 10uM” value was 0.665%. Under `CCO[C@H]1OC(C(=O)N2CCCCCCC2)=C[C@@H](C)[C@@H]1CCCO` stands 3.15%.

The values are drawn from article PMC4336329 (PLoS ONE, 2015).
